Data as given in patent publication US12065447B2, “Heterocyclic amide for inhibiting RIP1 kinase and uses thereof” (SHANGHAI INSTITUTE OF MATERIA MEDICA, CHINESE ACADEMY OF …, priority 2018, dated 2024).
For at least one compound, name, drawing or mass did not settle the structure. Some entries repeat one wording, which the source may state once for all of them.

Experiments:
[1] = tested on: DSS-induced ulcerative colitis; assay: DSS-induced ulcerative colitis mouse model; type: in vivo, C57BL/6 mice; conditions: 10 mg/kg by gavage; for disease symptoms (body weight, disease activity index): 3% DSS 8 days, FIGS. 5-8; for colon length: end of experiment, FIG. 9; for spleen and mesenteric lymph node T cell activation: FIGS. 10-19, versus GSK2982772
[2] = tested on: TNFα induced systemic inflammatory response syndrome (SIRS); assay: TNFα induced C57BL/6 mouse systemic inflammatory response syndrome (SIRS) model (hypothermic shock); type: in vivo; conditions: FIGS. 1-4; versus positive control GSK2982772
Description: TNFα Induced C57BL/6 Mouse Systemic Inflammatory Response Syndrome (SIRS) Model
Source, stirp and strain: C57BL/6 pure mouse, female, 18-20 g, purchased from Shanghai Lingchang Biotechnology Co., Ltd., license No. SCXK (Shanghai) 2013-0018. The animals were bred in the SPF animal room of Building No. 2 of the Shanghai institute of Materia Medica, and the experimental animal use license number is SYXK (Shanghai) 2013-0049. The animals were bred for at least one week before use at 22±1° C. with a humidity of 55±5% and 12 h light and dark cycle. Both feed and water are freely ingested by the animals after disinfection. All experiments were carried out in strict accordance with the relevant regulations on experimental animals.
2. […]
3. […] The drug concentration was determined comprehensively according to the results of in vitro experiments and the pharmacokinetic properties.
4. […] Therefore, the model with tail vein injection of TNFα was selected as the classic model for an animal level screen of RIP1 inhibitor. • 2) Experimental process: • a) The experimental animals were randomly grouped according to their body weight one day in advance, and there are 8 animals in each group. • b) On the day of the experiment, mTNFα and sterile PBS were diluted according to the above method, sucked into an insulin syringe at 125 μl/piece, that is, 5 μg/mice. • c) The drug was administered 15 min before modeling by gavage at 0.2 mL/mouse. • d) 15 min after administration, the modeling was started by injection of PBS or mTNFα into the tail vein, the injection was conducted according to the above dose. • e) After modeling, the rectal temperature was measured every 1 h and the survival rate was measured.
5. Testing Indicators: • 1) Animal body temperature: The rectal temperature was measured every 1 h after modeling. […]

Row | SMILES | disease symptoms (body weight, disease activity index) [1] | colon length [1] | spleen and mesenteric lymph node T cell activation [1] | body temperature protection in hypothermic shock model (rectal temperature) [2]
1 | CN1C(=O)[C@@H](NC(=O)c2n[nH]c(Cc3ccccc3)n2)COc2ccc(C#Cc3ccncc3)cc21 [ZB-R-52] | significantly improve the disease symptoms of DSS-induced inflammatory bowel disease in mice | significantly inhibit the shortening of colon length | significantly better than the positive compound GSK2982772 (GSK) in the multiple evaluated indicators | 
2 | CN1C(=O)[C@@H](NC(=O)c2n[nH]c(Cc3ccccc3)n2)COc2ccc(C#Cc3cnn(C)c3)cc21 [ZB-R-53] |  |  |  | better effect of body temperature protection than the positive control compound GSK2982772
3 | CN1C(=O)[C@@H](NC(=O)c2n[nH]c(Cc3ccccc3)n2)COc2ccc(C#Cc3ccccn3)cc21 [ZB-R-50] |  |  |  | better effect of body temperature protection than the positive control compound GSK2982772
4 | CN1C(=O)[C@@H](NC(=O)c2n[nH]c(Cc3ccccc3)n2)COc2ccc(C#CC3CCOCC3)cc21 [ZB-R-54] |  |  |  | better effect of body temperature protection than the positive control compound GSK2982772
5 | CN1C(=O)[C@@H](NC(=O)c2n[nH]c(Cc3ccccc3)n2)COc2ccc(C#CC3CC3)cc21 [ZB-R-55] |  |  |  | better effect of body temperature protection than the positive control compound GSK2982772
6 | CN1C(=O)[C@@H](NC(=O)c2n[nH]c(Cc3ccccc3)n2)COc2ccc(C#Cc3cccnc3)cc21 [ZB-R-51] | significantly improve the disease symptoms of DSS-induced inflammatory bowel disease in mice | significantly inhibit the shortening of colon length | significantly better than the positive compound GSK2982772 (GSK) in the multiple evaluated indicators | 
